46 molecules from PubChem BioAssay AID2528 (National Center for Advancing Translational Sciences (NCATS), 2010) can be followed below.

Where “and” joins values, the source holds several entries; their conditions need not be identical. Equal values may be shown once. Screen size: about 350,000 compounds; about 700 (0.2%) were called active. Calls follow the shape of the dose curve; as a rule, active = well fitted inhibition curve with a large enough effect; inconclusive = small, poorly fitted or top-dose-only effect; inactive = flat fitted curve, though single readings scatter. This is a selection; strong and weak results do not stand in their true shares. The source holds several records for some structures; these can differ, active in one and inactive in another.
Potency is read from the fitted curve at half-maximal effect.

For this experiment, the target named is RecQ-like DNA helicase BLM (Homo sapiens) (UniProt P54132). The experiment is described as follows: qHTS Assay for Inhibitors of Bloom's syndrome helicase (BLM). Also: nearly all actives have a fitted effect of over 35% in size.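 As to activity change, negative = inhibition: plate controls were vehicle for no effect and no enzyme for full effect.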 Conditions: recombinant BLM DNA unwinding, fluorescence dequenching; series mostly up to 56.1 µM; activity change, negative = inhibition: at the top concentration. (Quantitative high-throughput screening tests each substance at several concentrations.)
UniProt P54132, sequence (P54132 whole entry, looked up): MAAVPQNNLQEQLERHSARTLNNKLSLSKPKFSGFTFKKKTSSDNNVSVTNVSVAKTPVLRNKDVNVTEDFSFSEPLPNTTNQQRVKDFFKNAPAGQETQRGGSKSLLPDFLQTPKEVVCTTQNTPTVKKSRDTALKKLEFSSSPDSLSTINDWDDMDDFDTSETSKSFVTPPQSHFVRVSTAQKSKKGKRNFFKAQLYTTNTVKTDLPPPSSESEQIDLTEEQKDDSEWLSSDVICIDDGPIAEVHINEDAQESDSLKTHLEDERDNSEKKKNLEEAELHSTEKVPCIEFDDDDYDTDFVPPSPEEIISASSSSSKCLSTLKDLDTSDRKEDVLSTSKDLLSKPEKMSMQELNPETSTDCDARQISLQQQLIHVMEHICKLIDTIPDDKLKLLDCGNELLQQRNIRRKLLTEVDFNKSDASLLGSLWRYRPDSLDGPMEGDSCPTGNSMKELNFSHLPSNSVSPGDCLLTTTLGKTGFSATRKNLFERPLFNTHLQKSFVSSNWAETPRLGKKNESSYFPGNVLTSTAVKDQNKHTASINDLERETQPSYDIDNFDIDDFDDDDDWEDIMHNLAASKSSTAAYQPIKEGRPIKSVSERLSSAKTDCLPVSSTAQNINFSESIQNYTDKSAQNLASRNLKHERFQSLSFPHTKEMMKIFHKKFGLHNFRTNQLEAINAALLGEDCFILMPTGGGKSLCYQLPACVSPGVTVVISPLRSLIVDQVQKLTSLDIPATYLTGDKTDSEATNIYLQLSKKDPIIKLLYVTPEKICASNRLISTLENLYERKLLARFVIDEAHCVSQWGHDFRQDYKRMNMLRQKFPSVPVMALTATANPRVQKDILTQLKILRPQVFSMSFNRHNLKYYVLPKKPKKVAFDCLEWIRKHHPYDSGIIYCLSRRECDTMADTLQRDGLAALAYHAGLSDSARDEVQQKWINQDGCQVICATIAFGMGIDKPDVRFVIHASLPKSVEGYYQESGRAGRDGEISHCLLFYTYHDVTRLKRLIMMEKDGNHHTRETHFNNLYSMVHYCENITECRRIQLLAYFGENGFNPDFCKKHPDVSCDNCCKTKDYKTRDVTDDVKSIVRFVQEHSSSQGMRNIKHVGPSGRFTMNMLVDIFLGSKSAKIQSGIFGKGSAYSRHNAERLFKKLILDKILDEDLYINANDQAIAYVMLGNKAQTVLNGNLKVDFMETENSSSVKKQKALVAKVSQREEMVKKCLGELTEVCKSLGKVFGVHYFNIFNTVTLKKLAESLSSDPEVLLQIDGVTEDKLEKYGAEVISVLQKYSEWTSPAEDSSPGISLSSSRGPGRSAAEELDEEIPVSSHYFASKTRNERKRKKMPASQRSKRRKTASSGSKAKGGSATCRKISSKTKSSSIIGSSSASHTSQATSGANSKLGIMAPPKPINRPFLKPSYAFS
With `CS(=O)(=O)c1ccc2nc(NC(=O)c3ccc(Cl)nc3)sc2c1`, the Potency is active: 17.8 µM. For the molecule `O=C(O)/C=C/c1cnc[nH]1`, the “activity change, negative = inhibition” value is inactive: 4.19%. Regarding `O=C(N/N=C/c1cn(-c2cccs2)nc1-c1ccccc1)c1ccccc1O`, the Potency was active: 20 µM.

As to `Nc1ccc2c3c(cccc13)C(=O)NC2=O`, the “activity change, negative = inhibition” value is inactive: -20.8%.

Regarding `NC1=NC[C@H](Cc2ccc(O)cc2)N1CCc1cccc2ccccc12`, the “activity change, negative = inhibition” value was inactive: 38%.

For the molecule `Cc1cccc(C(=O)NCN2CCN(c3ccccc3C#N)CC2)c1`, the “activity change, negative = inhibition” value is inactive: -0.795%. Regarding `CCc1ccc(C(=O)c2cn(CC(=O)Nc3ccc4c(c3)OCO4)c3ccc(OC)cc3c2=O)cc1`, the Potency is active: 14.1 µM. Turning to `N.N.O=C(O)C1(C(=O)O)CCC1.[Pt]`, the “activity change, negative = inhibition” value was inactive: -0.104%. For `CCCn1c(=O)c2[nH]c(-c3ccc(OCC(=O)Nc4ccc(C#N)cc4)cc3)nc2n(CCC)c1=O`, the “activity change, negative = inhibition” value is inactive: -2.57%. Take `COC(=O)C1=C(C)NC(C)=C(C(=O)OCCN(C)Cc2ccccc2)[C@H]1c1cccc([N+](=O)[O-])c1`: the “activity change, negative = inhibition” value was inactive: -2.36% [at 21.4 µM]. Turning to `O=C1/C(=C/c2ccco2)SC(=S)N1c1cccnc1`, the Potency was active: 31.6 µM. As to `CN1C(=CC=C2C=C(I)C(=O)C(I)=C2)C(C)(C)c2ccccc21`, the Potency was active: 28.2 µM. For the molecule `C=CC1=C(C)C2=NC1=CC1=NC(=CC3=NC(=CC4=NC(=C2)C(C)=C4CCC(=O)O)C(CCC(=O)O)=C3C)C(C=C)=C1C.[Zn]`, the Potency was active: 35.5 µM. Consider `CC(=O)OCC1=C(C(=O)O)N2C(=O)[C@@H](NC(=O)Cc3cccs3)[C@H]2SC1`, for which the Potency result is “inactive”. In the case of `COc1cc(=O)n(C)c2c(OC[C@@H](O)C(C)(C)O)cccc12`, the “activity change, negative = inhibition” value is inactive: 3.58% [at 21.4 µM]. Take `O=C1CCC(N2C(=O)c3ccccc3C2=O)C(=O)N1` (stereo unspecified): the Potency entry was “inactive”. In the case of `O=C1NC(=O)/C(=C\c2ccccc2OCc2ccccc2)S1`, the “activity change, negative = inhibition” value is inactive: -10%.

For the molecule `O=c1cc(-c2ccccc2Cl)oc2c(NS(=O)(=O)c3cc(Cl)cc(Cl)c3O)ccc(O)c12`, the “activity change, negative = inhibition” value is inactive: -27.2%.

Regarding `CC(C)C[C@@H](NC(=O)[C@@H](O)[C@H](N)Cc1ccccc1)C(=O)O`, the “activity change, negative = inhibition” value was inactive: 1.4%.

`CN(CCOc1ccc(C[C@H](Nc2ccccc2C(=O)c2ccccc2)C(=O)O)cc1)c1ccccn1`: the “activity change, negative = inhibition” value is inactive: -3.47%. Take `CC[C@@H](C)[C@H]1O[C@]2(CC[C@@H]1C)C[C@@H]1C[C@H](C/C=C(/C)[C@H](O[C@@H]3C[C@H](OC)[C@H](O[C@@H]4C[C@H](OC)[C@@H](O)[C@H](C)O4)[C@H](C)O3)[C@@H](C)/C=C\C=C3CO[C@@H]4[C@H](O)C(C)=C[C@@H](C(=O)O1)[C@]34O)O2` (tested in a mixture with another compound): the “activity change, negative = inhibition” value was inactive: -12.5%. As to `CC(C)(CO)Cc1cc(C(C)(C)C)c(O)c(C(C)(C)C)c1`, the “activity change, negative = inhibition” value was inactive: -18.2%. In the case of `O=C(O)CN(CCN(CC(=O)O)CC(=O)O)CCN(CC(=O)O)CC(=O)O`, the Potency result was “inactive”.

Turning to `CCCn1cnc2c1c(=O)n(CCCCC(C)=O)c(=O)n2C`, the “activity change, negative = inhibition” value is inactive: 4.07%.

In the case of `COC(=O)[C@@H]1[C@@H]2C[C@H]3c4[nH]c5cc(OC)ccc5c4CCN3C[C@@H]2C[C@H](OC(=O)c2cc(OC)c(OC)c(OC)c2)[C@H]1OC`, the “activity change, negative = inhibition” value is inactive: -12% [at 21.4 µM]. Turning to `O=[N+]([O-])c1cc2nc(O)c(O)nc2cc1[N+](=O)[O-]`, the “activity change, negative = inhibition” value was inactive: -0.424%.

Consider `CC(C)NCC(O)c1cc(O)cc(O)c1` (stereo unspecified), for which the Potency result was “inactive”. The same measure, in the same setting: as for `COc1ccc(N2Cc3cccc(C(=O)N4CCN(C(=O)c5ccco5)CC4)c3C2=O)cc1`, the figure is active: 17.8 µM. As to `CC(C)(C(=O)O)c1ccc([C@H](O)CCCN2CCC(C(O)(c3ccccc3)c3ccccc3)CC2)cc1`, the “activity change, negative = inhibition” value was inactive: -0.503%. In the case of `C=CCn1c(N)c(C(=O)NCC2CCCO2)c2nc3ccccc3nc21` (stereo unspecified), the Potency was active: 5.62 µM. As to `COc1ccccc1CNC(=O)COC(=O)c1cc(-c2ccco2)nc2ccccc12`, the Potency is active: 11.2 µM.

In the case of `COc1ccccc1N1CCN(CCCNc2cc(=O)n(C)c(=O)n2C)CC1`, the Potency result is “inactive”.

For the molecule `O=C(O)CCCCC1CCSS1` (stereo unspecified), the Potency entry is “inactive and active: 14.1 µM”. As for `O=c1c2ccccc2nc2n1CCc1c-2[nH]c2ccccc12`, the “activity change, negative = inhibition” value is inactive: -6.62%.

Regarding `COc1ccccc1CNC(=O)/C=C/c1ccc(Br)o1`, the Potency is active: 10 µM. Still for that read-out and setting: then `Cc1c(N2C(=O)c3ccc4c5c(ccc(c35)C2=O)CC4)c(=O)n(-c2ccccc2)n1C`, with active: 14.1 µM. With `CCCCNc1ccc(C(=O)OCCN(C)C)cc1`, the Potency result is “inactive”. The same measure, in the same setting: as for `O=C1C=C(N2CCOCC2)c2ccccc2C1=O`, the figure is active: 8.91 µM; as for `Cc1cnc(C(=O)NCCc2ccc(S(=O)(=O)NC(=O)NC3CCCCC3)cc2)cn1`, “inactive”. On the same count and under the same terms, then `Nc1ccc2c(c1Cl)C(=O)c1ccc(N)c(Cl)c1C2=O`, with active: 14.1 µM. On to `CC(=O)SC1CC2=CC(=O)CCC2(C)C2CCC3(C)C(CCC34CCC(=O)O4)C12` (stereo unspecified), for which the “activity change, negative = inhibition” value is inactive: -10.3%. In the case of `COC(=O)C1=C(C)NC(C)=C(C(=O)OCCN(C)Cc2ccccc2)C1c1cccc([N+](=O)[O-])c1` (stereo unspecified), the Potency entry is “inactive”. Regarding `NCCCC(N)(C(=O)O)C(F)F` (stereo unspecified), the “activity change, negative = inhibition” value is inactive: -6.85%.

As for `c1ccc([C@@H]2CN3CCSC3=N2)cc1`, the “activity change, negative = inhibition” value is inactive: 1.05% [at 21.4 µM].

As for `Cc1ccccc1C(OCCN(C)C)c1ccccc1` (stereo unspecified), the Potency entry is “inactive”. Turning to `COC(=O)C1=C(C)NC(C)=C([N+](=O)[O-])[C@@H]1c1ccccc1C(F)(F)F`, the Potency entry was “inactive”.
